Data published in the supplement of paper PMC3334620.
Over roughly 33,000 sequences, “E-score (-0.5 to 0.5)” has its median near -0.035; the highest 2% begin near 0.34. This is one part of the list.

target: T1, Mot3 (UniProt P54785); experiment: PBM E-score (8-mer binding enrichment) (E-score (-0.5 to 0.5)); higher = stronger / more preferred TF binding; most listed sequences are background and not binding sites; conditions: protein concentration: 200 nM; construct: GST-full length
T1 sequence: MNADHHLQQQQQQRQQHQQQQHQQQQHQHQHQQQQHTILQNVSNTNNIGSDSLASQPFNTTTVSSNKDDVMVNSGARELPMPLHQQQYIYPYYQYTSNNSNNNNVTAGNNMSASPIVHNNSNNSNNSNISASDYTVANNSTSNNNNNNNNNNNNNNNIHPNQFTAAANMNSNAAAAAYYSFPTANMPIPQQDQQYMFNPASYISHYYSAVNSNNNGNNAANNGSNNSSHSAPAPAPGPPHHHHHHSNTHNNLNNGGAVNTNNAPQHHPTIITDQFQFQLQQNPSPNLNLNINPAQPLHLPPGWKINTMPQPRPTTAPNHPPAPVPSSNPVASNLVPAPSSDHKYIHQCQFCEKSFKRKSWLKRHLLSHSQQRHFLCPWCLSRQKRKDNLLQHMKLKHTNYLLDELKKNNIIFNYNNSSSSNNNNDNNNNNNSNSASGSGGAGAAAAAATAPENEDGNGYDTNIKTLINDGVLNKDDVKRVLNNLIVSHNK
How it was run: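 Masliner-normalised scans of fluorescent anti-GST signal were the basis for scoring. That signal came from GST-tagged yeast transcription factors applied at about 100-200 nM to double-stranded universal all-10-mer Agilent arrays on fresh or once-stripped slides. Each ungapped eight-base word, pooled with its reverse complement, received an E-score from the Universal PBM Analysis Suite.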

| Sequence | PBM E-score |
| --- | --- |
| GGGGCGCA | -0.306 |
| CACTCGCC | -0.0805 |
| GGGCCTGA | -0.00612 |
| AGGGCATG | -0.0789 |
| AGCCTACA | 0.227 |
| ACCGTGAA | 0.00486 |
| GACGAATA | 0.00511 |
| CGTACAGA | 0.0129 |
| AAGGAATG | 0.114 |
| ATCTTCAA | 0.0714 |
| AATATGAG | 0.106 |
| ACAGGTGC | 0.278 |
| ACTGATGG | -0.195 |
| ACGGGCGA | -0.158 |
| ACGTAGTA | 0.122 |
| AGTGCCAG | -0.0756 |
| CCGGTACA | 0.0242 |
| CAACAGCC | 0.2 |
| ATGTCATC | 0.0793 |
| CACGAAGA | 0.0476 |
| AATACGTC | 0.0595 |
| CTTACGCA | 0.301 |

| Sequence | PBM E-score |
| --- | --- |
| TCATACAA | 0.00761 |
| CCAGCTCG | -0.248 |
| ATATTCTG | -0.00598 |
| CTATTGAA | 0.03 |
| CGGAGGCC | -0.224 |
| CACTGGCA | 0.014 |
| ATTACATC | 0.356 |
| ATTAGCGA | -0.0915 |
| ACTTGTCC | -0.15 |
| CTAAGGTA | 0.226 |
| AGTGTATG | -0.123 |
| AGGCGTCA | 0.156 |
| ACGCTTAG | -0.0324 |
| AATCGTCT | -0.136 |
| AGACTACA | 0.0747 |
| CAGGTTCG | -0.00261 |
| ATTTATGC | -0.0077 |
| GACAAAAC | 0.0176 |
| TTAAGTAA | 0.0348 |
| CTAAGGAC | -0.231 |
| CGGGGACC | -0.0971 |
| ATTCCGAG | -0.22 |

| Sequence | PBM E-score |
| --- | --- |
| AAGCATTC | -0.0643 |
| AGCCGCAG | -0.211 |
| ACTGTACC | 0.0206 |
| GAGAGACA | -0.16 |
| CGTAATCC | 0.186 |
| GGTAGCTA | -0.0263 |
| TAGTGACA | 0.124 |
| AGGTATAT | 0.0556 |
| ACAAGCCT | 0.116 |
| AGATAAGG | -0.0101 |
| AGGGGATC | -0.231 |
| ATTGTCAG | 0.0338 |
| AGCGACCC | -0.252 |
| GTCTGCAA | -0.0815 |
| CTAGTTGA | 0.089 |
| CCCTGTAA | 0.251 |
| ACTCAGTG | -0.127 |
| CCTCGTCA | -0.0766 |
| AATTAGAG | -0.0584 |
| AAAAAGCT | -0.177 |
| CTCACTAC | -0.0176 |
| ATATATGG | 0.165 |

| Sequence | PBM E-score |
| --- | --- |
| ACCATATC | -0.208 |
| CGAGGGCG | -0.276 |
| ACACAGAC | 0.237 |
| AGGTTAAA | 0.142 |
| ATTCTCAA | 0.11 |
| AGTACATA | 0.362 |
| GCAGTTCC | 0.0335 |
| CAGCTTGA | -0.121 |
| AGTCTAAG | -0.0577 |
| CGCTCCCC | -0.197 |
| TCCTCAAA | 0.0707 |
| AGAATATA | 0.0352 |
| AACGGGCA | 0.0168 |
| AATGCATC | -0.106 |
| AAATGCTA | 0.063 |
| TATGCAAA | 0.0598 |
| GGCCGACC | -0.307 |
| ACGATTCA | -0.163 |
| AGGGTAAT | -0.0805 |
| CAGTGTCA | 0.0984 |
